SMILES strings stand for the structures. Hit rate of the full screen: of about 310,000 compounds, about 2,200 (0.71%) showed an effect of 50% or more. Effects have a minus sign here. The list shows a part of the results.

For the experiment, the target named is human ether-à-go-go-related gene (hERG) potassium channel (human, UniProt Q12809). Description: primary screen, population patch clamp on CHO cells stably expressing hERG.
human ether-à-go-go-related gene (hERG) potassium channel, sequence (Q12809 whole entry, looked up): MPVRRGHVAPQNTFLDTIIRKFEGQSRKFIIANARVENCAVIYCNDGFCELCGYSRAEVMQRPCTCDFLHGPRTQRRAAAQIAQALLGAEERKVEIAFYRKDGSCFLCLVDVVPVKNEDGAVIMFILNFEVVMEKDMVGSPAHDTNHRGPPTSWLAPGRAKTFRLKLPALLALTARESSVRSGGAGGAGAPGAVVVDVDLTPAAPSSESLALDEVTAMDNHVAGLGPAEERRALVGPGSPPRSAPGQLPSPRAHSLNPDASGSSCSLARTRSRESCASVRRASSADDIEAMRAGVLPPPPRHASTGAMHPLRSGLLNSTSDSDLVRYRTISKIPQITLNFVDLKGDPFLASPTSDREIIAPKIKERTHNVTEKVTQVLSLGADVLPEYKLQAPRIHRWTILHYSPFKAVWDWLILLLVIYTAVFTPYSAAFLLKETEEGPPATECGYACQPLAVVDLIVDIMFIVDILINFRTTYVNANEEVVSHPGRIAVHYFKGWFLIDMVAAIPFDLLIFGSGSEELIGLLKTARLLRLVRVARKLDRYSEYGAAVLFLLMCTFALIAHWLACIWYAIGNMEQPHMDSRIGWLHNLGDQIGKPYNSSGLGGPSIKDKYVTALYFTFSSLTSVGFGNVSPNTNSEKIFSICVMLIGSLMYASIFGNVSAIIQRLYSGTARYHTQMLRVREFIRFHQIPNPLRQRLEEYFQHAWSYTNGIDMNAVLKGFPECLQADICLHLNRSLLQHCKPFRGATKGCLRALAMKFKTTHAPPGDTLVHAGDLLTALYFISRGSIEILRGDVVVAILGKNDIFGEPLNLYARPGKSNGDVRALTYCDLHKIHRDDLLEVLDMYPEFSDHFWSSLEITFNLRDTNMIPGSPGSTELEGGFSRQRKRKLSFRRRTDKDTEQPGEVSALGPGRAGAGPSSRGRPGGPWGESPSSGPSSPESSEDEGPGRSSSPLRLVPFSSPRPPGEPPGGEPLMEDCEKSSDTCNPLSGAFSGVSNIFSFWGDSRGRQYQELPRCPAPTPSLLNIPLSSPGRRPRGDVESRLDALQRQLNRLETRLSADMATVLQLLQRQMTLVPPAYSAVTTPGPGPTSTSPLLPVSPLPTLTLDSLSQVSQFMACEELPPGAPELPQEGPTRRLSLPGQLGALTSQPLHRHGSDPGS
For the molecule `O=C(CN1C(=O)c2cccc3cccc1c23)Nc1cccnc1`, the “hERG current change (%, negative = inhibition) at 1uM” value came out at 0.892%. Take `OC(c1ccccn1)(c1ccccn1)c1ccccn1`: the “hERG current change (%, negative = inhibition) at 1uM” value is given as 9.51%. As to `Cc1ccsc1/C=N/NC(=O)c1ccc(-n2cccc2)cc1`, the “hERG current change (%, negative = inhibition) at 1uM” value amounted to 11.2%. Under `O=C(COC(=O)COc1ccc(Cl)cc1)NC1CCCCC1` stands 10.9%; under `O=C(O)CCc1ccc(-c2ccc(Cl)cc2)n1Cc1ccco1`, 3.04%; under `CCOC(=O)c1cccc(NC(=O)c2cc3ccccc3o2)c1`, 10.2%. For `C[C@]12CCC(=O)CC1CCC1C2CC[C@@]2(C)C1CC[C@@]21CCO1` (stereo partly shown), the “hERG current change (%, negative = inhibition) at 1uM” value was found to be 11%. For the molecule `CNC(=S)N1CCN(c2c(F)cc3c(=O)c(C(=O)O)cn(C4CC4)c3c2OC)CC1C` (stereo not shown), the “hERG current change (%, negative = inhibition) at 1uM” value is listed as 12.9%. Under `Fc1ccc2nc(Nc3nc4c(F)cccc4s3)sc2c1` stands 18.1%; under `O=S(=O)(c1ccccc1Cl)N1CCCC1c1nc(-c2ccccc2Cl)no1` (stereo not shown), 16.2%; under `Cn1nccc1C(=O)N1CCN(C23CC4CC(CC(C4)C2)C3)CC1`, -5.46%. Under `NS(=O)(=O)c1ccc(N2N=C(c3ccccc3)CC2c2cccc(F)c2)cc1` (stereo not shown) stands 7.04%. As for `COC(=O)CC1C(=O)NCCN1C(=O)c1sc2ccccc2c1Cl` (stereo not shown), the “hERG current change (%, negative = inhibition) at 1uM” value is 11.9%. Under `O=C(NCCCN1CCOCC1)c1onc(CSc2ccc(F)c(F)c2)c1C(=O)NCCCN1CCOCC1` stands 13.2%; under `NC(=O)c1ccc(NC(=O)CCC(=O)N2CCN(S(=O)(=O)c3ccc(Cl)cc3)CC2)cc1`, 8%. With `O=C(c1ccc([N+](=O)[O-])s1)N1CCc2ccccc2C1`, the “hERG current change (%, negative = inhibition) at 1uM” value is listed as 21.2%. For the molecule `COc1ccc(-c2nnc(SC(=O)N3c4ccccc4Sc4ccccc43)o2)cc1`, the “hERG current change (%, negative = inhibition) at 1uM” value is 17.6%. As to `Cn1c(=O)[nH]c(=O)c2c1nc(N1CCNCC1)n2Cc1ccccc1`, the “hERG current change (%, negative = inhibition) at 1uM” value is recorded as -2.29%. Turning to `COC(=O)c1cc(C(=O)N2CCOCC2)cc([N+](=O)[O-])c1`, the “hERG current change (%, negative = inhibition) at 1uM” value worked out at 15.1%.

`S=c1[nH]nc(CSc2nc3ccccc3s2)n1Cc1ccccc1`: the “hERG current change (%, negative = inhibition) at 1uM” value is listed as 8.36%. In the case of `CCCc1nn2c(=O)cc(COc3cccc(NC(=O)c4ccco4)c3)nc2s1`, the “hERG current change (%, negative = inhibition) at 1uM” value is recorded as -0.535%. Under `COc1ccc(-c2nc(N3CCCC3)[nH]c(=O)c2C#N)cc1` stands 11.6%; under `Cc1nn(Cc2ccccc2)c(C)c1CNC(=O)[C@H](C)N=C1NS(=O)(=O)c2ccccc21`, 10.4%; under `Cc1cc(OCC(=O)OCC(=O)N(C)Cc2ccccc2C)ccc1Cl`, 11.1%.

On to `COc1ccc(S(=O)(=O)NC2(C(F)(F)F)NC(=O)N(CCc3ccccc3)C2=O)cc1` (stereo not shown), for which the “hERG current change (%, negative = inhibition) at 1uM” value worked out at 10.1%. Regarding `COc1ccccc1C(=O)NCC1CCN(c2ccc(S(=O)(=O)N3CCOCC3)cc2)CC1`, the “hERG current change (%, negative = inhibition) at 1uM” value is -0.111%. As to `NC1=NC(c2cn[nH]c2-c2cccc(F)c2)n2c(nc3ccccc32)N1` (stereo not shown), the “hERG current change (%, negative = inhibition) at 1uM” value was 10.3%. With `NC(=O)CSc1nc(C23CC4CC(CC(C4)C2)C3)nc2ccccc12`, the “hERG current change (%, negative = inhibition) at 1uM” value came out at 1.28%. Under `CCOc1ccccc1NC(=S)NC(=O)CCCOc1ccc(Cl)cc1Cl` stands 9.57%; under `COc1ccc(-c2cn(-c3ccc(C)cc3)c(=O)n2CC(=O)Nc2ccc(OC)cc2OC)cc1`, 8.62%. For `CNC(=O)CN1C(=O)c2ccccc2S1(=O)=O`, the “hERG current change (%, negative = inhibition) at 1uM” value was 13.3%. Turning to `O=C1CCc2cc(S(=O)(=O)N3CCN(C(=O)c4ccco4)CC3)ccc2N1`, the “hERG current change (%, negative = inhibition) at 1uM” value is given as -10.7%. For `Cc1c(-c2ccccc2)nc(N)c(C#N)c1-c1cccs1`, the “hERG current change (%, negative = inhibition) at 1uM” value is 3.37%. Under `CC(=O)C(Sc1ccc2nnc(-c3cccnc3)n2n1)C(C)=O` stands 4.31%; under `COc1ccc(N2C(=O)[C@@H]3[C@H](C2=O)[C@H]2c4ccccc4C=CN2[C@@H]3C(=O)Nc2ccccc2)cc1`, -7.76%; under `CC1(C)CC(=O)C2=C(C1)Nc1ccccc1NC2c1ccc(F)cc1` (stereo not shown), 11.4%. `CCOC(=O)CSc1nnc(CNC(=O)c2cccs2)n1CCc1ccccc1`: the “hERG current change (%, negative = inhibition) at 1uM” value is given as -6.88%. Under `CCCN(C(=O)COC(=O)CCOc1ccccc1C)c1c(N)n(Cc2ccccc2)c(=O)[nH]c1=O` stands 9.64%; under `CCC(=O)/C=C1\Sc2ccccc2N1CC`, 4.38%. Under `CCCNS(=O)(=O)c1ccc(CCC(=O)N2CCN(c3ccc(OC)cc3)CC2)cc1` stands -6.53%; under `COCCn1c(SCc2nnc(-c3ccc(OC)c(OC)c3)o2)nnc1-c1ccncc1`, 6.49%. Under `Cc1ccccc1N/C(=C(/C(Cl)=C(Cl)Cl)[N+](=O)[O-])n1nnc2ccccc21` stands -0.222%; under `CN(CC#CC(O)(c1ccccc1)c1ccccc1)C(C)(C)C`, -40.8%.

The values are drawn from PMC4336329 (PLoS ONE, 2015).
